{
  "source": "paper PMC10920779",
  "about": "“Targeting P2Y14R protects against necroptosis of intestinal epithelial cells through PKA/CREB/RIPK1 axis in ulcerative colitis” (Nature Communications, 2024)",
  "key": {"P2Y14R": {"target": "T1, P2Y14R (Homo sapiens, UniProt Q15391)", "T1 sequence (Q15391 1-338)": "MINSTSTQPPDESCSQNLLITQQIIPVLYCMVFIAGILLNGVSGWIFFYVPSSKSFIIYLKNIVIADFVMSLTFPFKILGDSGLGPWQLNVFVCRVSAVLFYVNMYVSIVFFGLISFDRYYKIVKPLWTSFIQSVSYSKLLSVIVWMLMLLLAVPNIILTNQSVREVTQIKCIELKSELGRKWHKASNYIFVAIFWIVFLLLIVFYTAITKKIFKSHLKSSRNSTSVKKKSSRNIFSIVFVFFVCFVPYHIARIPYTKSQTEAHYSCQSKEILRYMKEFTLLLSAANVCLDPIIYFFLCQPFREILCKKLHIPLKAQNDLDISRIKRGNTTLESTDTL", "assay": "cAMP production assay for P2Y14R antagonistic activity in P2Y14-HEK293 cells"}, "HT-29 cells": {"tested_on": "HT-29 cells", "assay": "TSZ-induced necroptosis in HT-29 cells (CCK8 viability, PI/Hoechst, H&E staining)", "format": "cell-based, human", "conditions": "for siP2Y14R-derived protection against TSZ-stimulated necroptosis: siP2Y14R HT-29 cells", "experimental": "(§1) Necroptosis was induced by pretreatment with TNF‐α (20 ng·mL^−1) plus z‐VAD‐fmk (20 μM) and Smac mimetic (BV6, 2 μM) for 8 h, then stained cells with hematoxylin/eosin. For PI/Hoechst staining, cells were stained with PI and Hoechst for 20 min, then photographed with a fluorescence microscope and at least 300 cells were counted. The ratio of PI positive cells (%) = (PI positive cells) / (Hoechst positive cells) × 100%. For cell viability assay, CCK8 was added to the well and incubated for 1 − 2 h and then OD450 was measured using a multi-mode microplate reader (Cytation5, BioTek)."}, "Ripk1 mRNA [1]": {"tested_on": "Ripk1 mRNA", "assay": "RT-PCR of Ripk1 mRNA in HT-29 cells", "format": "cell-based, human", "conditions": "HT-29 cells, UDPG+TSZ, pre-treatment", "from_the_text": "(§2) Total RNA was extracted from cells or colonic tissues using Trizol (Thermo) under the manufacturer’s instructions. First strand cDNA was synthesized using the PrimeScript RT Reagent Kit (480, Abm). SYBR Green Master Mix reagents (Q331-02, Vazyme) and primer mixtures (Table S1) were used for the real-time PCR. […] The procedure was as described in the kit provided by the manufacturer. Briefly, isolated IECs were fixed by 1% formaldehyde, and fragmented by sonication. CREB was then used for immunoprecipitation. After washing and reverse-crosslinking, the precipitated DNA was amplified by primers and quantified by the qPCR. Primer sequences can be found in Supplementary Table 1."}, "[2]": {"tested_on": "CREB binding to Ripk1 promoter", "assay": "ChIP-qPCR with anti-CREB on Ripk1 gene promoter in HCT-116 cells", "format": "cell-based, human", "conditions": "UDPG+TSZ, pre-treatment", "from_the_text": "as §2"}, "[3]": {"tested_on": "PKA and CREB phosphorylation", "assay": "Immunoblotting of p-PKA and p-CREB in HCT-116 cells", "format": "cell-based, human", "conditions": "UDPG+TSZ", "experimental": "(§3) Tissues and cells were lysed using RIPA lysis buffer (Beyotime Biotechnology) containing protease and phosphatase inhibitor, homogenated, and centrifuged. The protein concentration was determined by BCA protein assay (Beyotime Biotechnology). Equal concentrations of proteins were separated in a 10% SDS-PAGE and transferred to PVDF membrane. […] Densitometry was quantified using ImageJ software."}, "intestinal organoids": {"tested_on": "intestinal organoids", "assay": "TSZ-induced necroptosis in intestinal organoids (PI staining)", "format": "cell-based, mouse", "conditions": "for Protection of P2Y14R deficiency against TSZ-mediated necroptosis: P2Y14R△IEC organoids, pre-treated", "experimental": "Crypts were released from the murine small intestine by incubation for 30 min at 4°C in PBS containing 2 mM EDTA. Isolated crypts were counted and pelleted. […] Organoid media were changed every 3 days. […] Dead cell imaging in live organoids was performed on the fluorescence microscope (BX53, Olympus Optical), and analyzed by image j."}, "HCT-116 cells": {"tested_on": "HCT-116 cells", "assay": "TSZ-induced necroptosis in HCT-116 cells (PI/Hoechst staining)", "format": "cell-based, human", "conditions": "P2Y14R-overexpression HCT-116 cells, pre-treated", "experimental": "as §1"}, "[4]": {"tested_on": "PKA and CREB phosphorylation", "assay": "Immunoblotting of p-PKA and p-CREB in HT-29 cells", "format": "cell-based, human", "conditions": "UDPG+TSZ", "experimental": "as §3"}, "Ripk1 mRNA [5]": {"tested_on": "Ripk1 mRNA", "assay": "RT-PCR of Ripk1 mRNA in HCT-116 cells", "format": "cell-based, human", "conditions": "HCT-116 cells, UDPG+TSZ, pre-treatment", "from_the_text": "as §2"}, "[6]": {"tested_on": "CREB binding to Ripk1 promoter", "assay": "ChIP-qPCR with anti-CREB on Ripk1 gene promoter in HT-29 cells", "format": "cell-based, human", "conditions": "UDPG+TSZ, pre-treatment", "from_the_text": "as §2"}, "RIPK1": {"tested_on": "RIPK1", "assay": "RIPK1 protein half-life experiment with cycloheximide in HT-29 cells (western blot)", "format": "cell-based, human", "conditions": "within 6 hours of treatment", "experimental": "mRNA in siP2Y14R cells (Fig.#3 c-d.). Besides, UDPG treatment promoted the transcript of Ripk1, […]\nTunel staining and primer sequence have been included in the method section and Supplementary table 1 of the revised manuscript.\nFig.#3 a. The mRNA level of Ripk1 in siP2Y14R or P2Y14R-OE HT-29 cel ls treated DMSO (Veh), or TSZ was analyzed by RT-PCR. b. The mRNA level of Ripk1 in siP2Y14R or P2Y14R-OE HCT-116 cells treated with Veh or TSZ was analyzed by RT-PCR. c. The mRNA level of Ripk1 in siP2Y14R HT-29 cells treated with Veh, TSZ, TSZ+SQ22536, TSZ + H-89 or TSZ + 666-15 was analyzed by RT-PCR. d. The mRNA level of Ripk1 in siP2Y14R HCT-116 cells treated with Veh, TSZ, TSZ+SQ22536, TSZ + H-89 or TSZ + 666-15 was analyzed by RT-PCR. e. The mRNA level of Ripk1 in HT-29 cells treated with Veh, TSZ, UDPG, TSZ+UDPG, TSZ+UDPG+Nec-1 or TSZ+UDPG+GSK’872 was analyzed by RT-PCR. f. The mRNA level of Ripk1 in HCT-116 cells treated with Veh, TSZ, UDPG, TSZ+UDPG, TSZ+UDPG+Nec-1 or TSZ+UDPG+GSK’872 was analyzed by RT-PCR. The data represent the mean ± SD, and One-way analysis of variance […]\nof approximately 60-70% of the initial RIPK1 level. Although, a sizable fraction of the initial RIPK1 […]\nFig.#4 The expression of RIPK1 in HT-29 cells 0 hours, 1.5 hours, 3 hours, 6 hours, 12 hours and 24 hours after cycloheximide (CHX) treatment was analyzed by western bolt. […]"}},
  "note": "Several values for one entry are separate records, joined by “and”; a condition that tells them apart may be missing. Equal entries are not always repeated.",
  "data": [
    {"smiles": "Cn1c(CNc2ccccc2)nc2ccccc21", "note": "[D4]", "values": [
      {"measurement": "IC50", "setting": "P2Y14R", "result": 0.0254, "unit": "µM"}
    ]},
    {"smiles": "CC(C)S(=O)(=O)c1ccc2nccc(Nc3ccc4scnc4c3)c2c1", "note": "[GSK'872]", "values": [
      {"measurement": "PI positive (%)", "setting": "HT-29 cells; P2Y14R-OE cells + TSZ, replicates, supplement Figure 2c", "result": "19.4151% and 12.3349% and 11.6079%"}
    ]},
    {"smiles": "CC(C)S(=O)(=O)c1ccc2nccc(Nc3ccc4scnc4c3)c2c1", "note": "[GSK’872]", "values": [
      {"measurement": "Ripk1 transcript (mRNA)", "setting": "Ripk1 mRNA [1]", "result": "showed no effect"},
      {"measurement": "Decrease of binding between CREB and Ripk1 promoter (ChIP)", "setting": "[2]", "result": "did not affect this process"},
      {"measurement": "Phosphorylation level of PKA/CREB pathway", "setting": "[3]", "result": "did not affect the phosphorylation level of PKA/CREB pathway"},
      {"measurement": "UDPG-increased TSZ necroptosis in organoids", "setting": "intestinal organoids; P2Y14Rfl/fl organoids, UDPG+TSZ", "result": "remarkably attenuated this damage"},
      {"measurement": "TSZ-stimulated necroptosis", "setting": "HCT-116 cells", "result": "alleviated this phenomenon"},
      {"measurement": "Phosphorylation level of PKA/CREB pathway", "setting": "[4]", "result": "did not affect the phosphorylation level of PKA/CREB pathway"},
      {"measurement": "Ripk1 transcript (mRNA)", "setting": "Ripk1 mRNA [5]", "result": "showed no effect"},
      {"measurement": "Decrease of binding between CREB and Ripk1 promoter (ChIP)", "setting": "[6]", "result": "did not affect this process"},
      {"measurement": "UDP-glucose derived damage on TSZ-stimulated necroptosis", "setting": "HT-29 cells; HT-29 cells, UDPG+TSZ", "result": "remarkably attenuated the UDP-glucose derived damage on TSZ-stimulated necroptosis"},
      {"measurement": "TSZ-stimulated necroptosis", "setting": "HT-29 cells; P2Y14R-overexpression HT-29 cells, 1h pre-treatment, TSZ 8 h", "result": "alleviated TSZ stimulated IECs necroptosis"}
    ]},
    {"smiles": "O=S(=O)(NCCNC/C=C/c1ccc(Br)cc1)c1cccc2cnccc12", "note": "[H-89]", "values": [
      {"measurement": "Protection of P2Y14R deficiency against TSZ-mediated necroptosis", "setting": "intestinal organoids", "result": "disrupted the improvement of P2Y14R deficiency on TSZ-mediated necroptosis"},
      {"measurement": "siP2Y14R-derived protection against TSZ-stimulated necroptosis", "setting": "HT-29 cells", "result": "disrupted the siP2Y14R-derived protective effect on TSZ-stimulated necroptosis"}
    ]},
    {"smiles": "Nc1ncnc2c1ncn2C1CCCO1", "note": "(centres unmarked) [SQ22536]", "values": [
      {"measurement": "Protection of P2Y14R deficiency against TSZ-mediated necroptosis", "setting": "intestinal organoids", "result": "disrupted the improvement of P2Y14R deficiency on TSZ-mediated necroptosis"},
      {"measurement": "siP2Y14R-derived protection against TSZ-stimulated necroptosis", "setting": "HT-29 cells", "result": "disrupted the siP2Y14R-derived protective effect on TSZ-stimulated necroptosis"}
    ]},
    {"smiles": "C[C@@H]1C[C@@H]([C@H](O)CC2CC(=O)NC(=O)C2)C(=O)[C@@H](C)C1", "note": "[cycloheximide]", "values": [
      {"measurement": "Decrease of the initial RIPK1 level", "setting": "RIPK1", "result": "60-70%"}
    ]}
  ]
}
